Source: patent US20250243260A1 (ALPINE IMMUNE SCIENCES, published 2025)
Where a chain is given by its changes, count along the chain named. Names may count otherwise. One block for each binder: values may come before it.

Legend:
[1] = biological target: T1, human PD-L1 on cells (SCC152/PD-L1, K562/OKT3/PD-L1, HCC827, A704) (human, UniProt Q9NZQ7); assay: flow cytometry on HCC827 cells (PD-L1 65K copies), APC anti-human Fc, median fluorescence intensity
T1 construct: whole, on cells; SCC152 and K562 cells were transduced with PD-L1; HCC827 and A704 are used without a stated transduction of PD-L1; also called cell-surface PD-L1
Method: Cells were spun down and resuspended in staining buffer (PBS (phosphate buffered saline), 1% BSA (bovine serum albumin), 1 mM EDTA, and 0.1% sodium azide) for 20 minutes to block non-specific binding. […] Primary staining was performed on ice for 60 minutes, before washing cells in […] staining buffer three times. […] Samples were analyzed CytoFLEX LX flow cytometer (Beckman Coulter, USA). Median Fluorescence Intensity (MFI) was calculated for each cell type using the CytExpert software from Beckman Coulter.

human PD-L1 [2] = biological target: T2, human PD-L1 (human, UniProt Q9NZQ7); assay: flow cytometry, SCC152 cells transduced with human PD-L1; the reference itself
T2 construct: whole, on cells

[3] = biological target: CD28 on Jurkat/IL2-reporter cells (UniProt P10747 19-220, limits assumed); assay: cell-based or functional assay
human PD-L1 [4] = biological target: T2, human PD-L1; assay: flow cytometry, SCC152 cells transduced with human PD-L1, anti-human Fc detection
T2 sequence (Q9NZQ7 19-290): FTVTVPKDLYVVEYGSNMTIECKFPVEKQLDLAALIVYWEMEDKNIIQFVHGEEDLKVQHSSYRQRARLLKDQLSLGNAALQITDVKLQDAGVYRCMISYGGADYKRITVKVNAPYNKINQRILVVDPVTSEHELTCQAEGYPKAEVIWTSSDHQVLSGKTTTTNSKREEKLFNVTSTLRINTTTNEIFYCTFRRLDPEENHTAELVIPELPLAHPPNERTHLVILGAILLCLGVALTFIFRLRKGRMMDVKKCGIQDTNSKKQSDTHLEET
Method: (§1) Binding affinity to CD28 was determined using primary human T cells which endogenously express CD28. Binding to PD-L1 was determined using SCC152 cells transduced with human PD-L1. Binding to CTLA-4 was measured using Chinese hamster ovary (CHO) cells stably transduced to express human CTLA-4.
(§2) For staining and analysis by flow cytometry, 75,000 human T cells, SCC152/PD-L1 cells, or CHO/CTLA-4 cells were plated in 96-well round-bottom plates. Cells were spun down and resuspended in staining buffer (PBS (phosphate buffered saline), 1% BSA (bovine serum albumin), 1 mM EDTA, and 0.1% sodium azide) for 20 minutes to block non-specific binding. Afterwards, cells were centrifuged, stain buffer aspirated, and then resuspended in 50 μL of a 1:5 serial dilution of each CD80-Fc candidate variant starting at 100 nM ending at 0.8 nM. Primary staining was performed on ice for 60 minutes, before washing cells in […] staining buffer three times. PE-conjugated anti-human Fc (Jackson ImmunoResearch, USA) was diluted 1:250 in 50 μL staining buffer and added to cells and incubated another 30 minutes at 4° C. Cells were washed two times in 150 μL stain buffer and then fixed in 2% formaldehyde/PBS for 5 minutes at room temperature. Samples were analyzed CytoFLEX LX flow cytometer (Beckman Coulter, USA). Median Fluorescence Intensity (MFI) was calculated for each cell type using the CytExpert software from Beckman Coulter.
(§3) Binding assays were carried out to assess the specificity and affinity of multivalent proteins to cell-expressed CTLA-4, CD28, and PD-L1 counter structures.

human PD-L1 [5] = biological target: T2, human PD-L1; assay: flow cytometry, SCC152 cells transduced with human PD-L1; MFI against WT CD80 ECD-Fc
Method: as §1, §2, §3

[6] = biological target: rhu PD-L1 (soluble PD-L1 analyte of the SPR experiments) (human, UniProt Q9NZQ7 fragment, limits assumed); assay: SPR (Biacore), variant CD80-Fc captured, PD-L1 as analyte, 120 s association and 240 s dissociation
rhu CD28 = biological target: T3, rhu CD28 (human, UniProt P10747 19-152, limits assumed); assay: SPR, rhu CD28 analyte, 1:1 model
T3 construct: also called CD28 (SPR analyte)

rhu PD-L1 [7] = biological target: T4, rhu PD-L1 (human, UniProt Q9NZQ7 fragment, limits assumed); assay: SPR, rhu PD-L1 analyte, 1:1 model
T4 construct: also called PD-L1 (SPR analyte)

rhu PD-L1 [8] = biological target: T4, rhu PD-L1; assay: SPR (Biacore), captured CD80-Fc, PD-L1 analyte
T4 sequence (Q9NZQ7 19-238 limits assumed): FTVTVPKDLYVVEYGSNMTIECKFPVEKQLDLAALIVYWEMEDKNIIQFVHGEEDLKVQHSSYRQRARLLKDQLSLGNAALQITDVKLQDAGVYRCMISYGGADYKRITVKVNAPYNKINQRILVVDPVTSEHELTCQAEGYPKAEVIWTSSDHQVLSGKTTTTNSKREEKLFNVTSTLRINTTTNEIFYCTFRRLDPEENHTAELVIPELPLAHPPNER

B3: CD80-CD80-Fc_337 (tandem, E10G, V11W, T28Y, M47L) (Fc fusion)
chain: VIHVTKEVKGWATLSCGHNVSVEELAQYRIYWQKEKKMVLTMMSGDLNIWPEYKNRTIFDITNNLSIVILALRPSDEGTYECVVLKYEKDAFKREHLAEVTLSVKADGGGGSGGGGSGGGGSVIHVTKEVKGWATLSCGYNVSVEELAQYRIYWQKEKKMVLTMMSGDLNIWPEYKNRTIFDITNNLSIVILALRPSDEGTYECVVLKYEKDAFKREHLAEVTLSVKADGSGGGGS[omitted - human IgG4 Fc with S228P (EU numbers)]
notes: Tetravalent after dimerization of the Fc chains
EC50 (read off the curve) [1]: ~500 pM

B4: CD80-CD80-Fc_340 (CD80_185 V11Y/T28Y/M47L; CD80_416) (Fc fusion)
chain: B3 chain with G10E, W11Y, G132E, W133Y
notes: tandem format, tetravalent
Anti-Human Fc (MFI) at 0.8 nM (human PD-L1 [4]): 5100 MFI | Anti-Human Fc (MFI) at 4 nM (human PD-L1 [4]): 7790 MFI | Anti-Human Fc (MFI) at 20 nM (human PD-L1 [4]): 8600 MFI | Anti-Human Fc (MFI) at 100 nM (human PD-L1 [4]): 9020 MFI | fold change vs WT CD80 @20 nM (human PD-L1 [5]): 12.6 fold

B6: CD80-CD80-Fc_342 (CD80_197 V11Y/E35D/Y87Q/T101R) (Fc fusion)
chain: VIHVTKEVKEYATLSCGHNVSVEELAQTRIYWQKDKKMVLTMMSGDMNIWPEYKNRTIFDITNNLSIVILALRPSDEGTYECVVLKQEKDAFKREHLAEVRLSVKADGGGGSGGGGSGGGGSVIHVTKEVKEYATLSCGYNVSVEELAQTRIYWQKDKKMVLTMMSGDMNIWPEYKNRTIFDITNNLSIVILALRPSDEGTYECVVLKQEKDAFKREHLAEVRLSVKADGSGGGGS[omitted - human IgG4 Fc with S228P (EU numbers)]
notes: tandem format, tetravalent
Anti-Human Fc (MFI) at 0.8 nM (human PD-L1 [4]): 2200 MFI | Anti-Human Fc (MFI) at 4 nM (human PD-L1 [4]): 5460 MFI | Anti-Human Fc (MFI) at 20 nM (human PD-L1 [4]): 7500 MFI | Anti-Human Fc (MFI) at 100 nM (human PD-L1 [4]): 7630 MFI | fold change vs WT CD80 @20 nM (human PD-L1 [5]): 11 fold

B7: CD80-CD80-Fc_340 (tandem, V11Y, T28Y, M47L) (Fc fusion)
chain: B3 chain with G10E, W11Y, G132E, W133Y
notes: as for B3
EC50 (read off the curve) [1]: ~500 pM

B8: CD80_185-Fc (V11Y, T28Y, M47L) (Fc fusion)
chain: VIHVTKEVKEYATLSCGHNVSVEELAQYRIYWQKEKKMVLTMMSGDLNIWPEYKNRTIFDITNNLSIVILALRPSDEGTYECVVLKYEKDAFKREHLAEVTLSVKADGSGGGGS[omitted - human IgG4 Fc with S228P (EU numbers)]
koff [6]: 0.0139 s⁻¹

B9: CD80_233-Fc (V11Y, T28Y, M47L, V68M) (Fc fusion)
chain: B8 chain with V68M
EC50 (read off the curve) [1]: ~4000 pM

B10: CD80_234-Fc (Fc fusion)
chain: B8 chain with V68L
notes: Variant CD80 IgV-GSGGGGS-human IgG4 Fc (S228P); also called V11Y, T28Y, M47L, V68L
Kd (rhu CD28): 63.6 nM | koff (rhu CD28): 0.00394 s⁻¹ | kon (rhu CD28): 62000 M⁻¹ s⁻¹ | Kd (rhu PD-L1 [7]): 138 nM | koff (rhu PD-L1 [7]): 0.0028 s⁻¹ | kon (rhu PD-L1 [7]): 20300 M⁻¹ s⁻¹ | Complex half-life (rhu PD-L1 [8]): 80.4 s | koff (rhu PD-L1 [8]): 0.009 s⁻¹

B12: CD80_240-Fc (V11Y, T28Y, D46E, M47V, V68M) (Fc fusion)
chain: B8 chain with D46E, L47V, V68M
koff [6]: 0.0167 s⁻¹

The remaining lines, values ahead:

EC50 (read off the curve) [1]: ~500 pM
B1: CD80-CD80-Fc_414 (tandem, V11Y, T28Y, M47L, A71G) (Fc fusion)
chain: VIHVTKEVKEYATLSCGHNVSVEELAQYRIYWQKEKKMVLTMMSGDLNIWPEYKNRTIFDITNNLSIVILGLRPSDEGTYECVVLKYEKDAFKREHLAEVTLSVKADGGGGGSGGGGSGGGGSVIHVTKEVKEYATLSCGYNVSVEELAQYRIYWQKEKKMVLTMMSGDLNIWPEYKNRTIFDITNNLSIVILGLRPSDEGTYECVVLKYEKDAFKREHLAEVTLSVKADGSGGGGS[omitted - human IgG4 Fc with S228P (EU numbers)]
notes: as for B3

fold change vs WT CD80 @20 nM (human PD-L1 [2]): 1 fold | Fold Increase over WT at 50 nM [3]: 1 fold | Rel. Luminescence Units (RLU) 2 nM [3]: 2830 RLU | Rel. Luminescence Units (RLU) 10 nM [3]: 2660 RLU | Rel. Luminescence Units (RLU) 50 nM [3]: 2440 RLU | Rel. Luminescence Units (RLU) 250 nM [3]: 2640 RLU | Anti-Human Fc (MFI) at 0.8 nM (human PD-L1 [4]): 644 MFI | Anti-Human Fc (MFI) at 4 nM (human PD-L1 [4]): 652 MFI | Anti-Human Fc (MFI) at 100 nM (human PD-L1 [4]): 637 MFI
B2: WT CD80 ECD-Fc IgG4 (Fc fusion)
chain: VIHVTKEVKEVATLSCGHNVSVEELAQTRIYWQKEKKMVLTMMSGDMNIWPEYKNRTIFDITNNLSIVILALRPSDEGTYECVVLKYEKDAFKREHLAEVTLSVKADFPTPSISDFEIPTSNIRRIICSTSGGFPEPHLSWLENGEELNAINTTVSQDPETELYAVSSKLDFNMTTNHSFMCLIKYGHLRVNQTFNWNTTKQEHFPDNGSGGGGS[omitted - human IgG4 Fc with S228P (EU numbers)]
notes: also called wildtype CD80 ECD-Fc

Anti-Human Fc (MFI) at 0.8 nM (human PD-L1 [4]): 5340 MFI | Anti-Human Fc (MFI) at 4 nM (human PD-L1 [4]): 7860 MFI | Anti-Human Fc (MFI) at 20 nM (human PD-L1 [4]): 8720 MFI | Anti-Human Fc (MFI) at 100 nM (human PD-L1 [4]): 8660 MFI | fold change vs WT CD80 @20 nM (human PD-L1 [5]): 12.8 fold
B5: CD80-CD80-Fc_337 (CD80_180 E10G/V11W/T28Y/M47L; CD80_415) (Fc fusion)
chain: B3 chain
notes: tandem format, tetravalent after Fc dimerization

koff [6]: 0.0072 s⁻¹
B11: CD80_184-Fc (V11Y, A26Q, M47L, A71G, Y87R) (Fc fusion)
chain: B8 chain with A26Q, Y28T, A71G, Y87R

EC50 (read off the curve) [1]: ~6000 pM
B13: CD80_236-Fc (V11Y, T28Y, M47L, A71G) (Fc fusion)
chain: B8 chain with A71G

EC50 (read off the curve) [1]: ~6000 pM | koff [6]: 0.00863 s⁻¹
B14: CD80_234-Fc (V11Y, T28Y, M47L, V68L) (Fc fusion)
chain: B8 chain with V68L
